# Measurements reported in the supplement of paper PMC12582362.
# Structures can show the parent of a compound that is named as a salt. About 30 (2%) of roughly 1,500 compounds showed activity.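 The calls were made as follows: active = robust z-score below -2; a few such results were not called.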 The list shows a part of the results.
# Test system: optoTopBP1 Flp-In 293 T-REx (HEK293) cells
# Assay: light-induced TopBP1 condensate (nuclear foci) count, plate-normalised robust z-score vs non-control wells; higher = more TopBP1 condensates (negative = condensation inhibitor), active = hit call of the paper
# Conditions: 10 µM; incubation time 2 h
row,SMILES,light-induced TopBP1 condensate (z-score)
1,Cc1cccc(C)c1NC(=O)CN1CCN(CCCC(c2ccc(F)cc2)c2ccc(F)cc2)CC1 [Lidoflazine],inactive: 0.0471
2,NC[C@H]1O[C@H](O[C@H]2[C@H](O)[C@@H](O[C@H]3O[C@H](CO)[C@@H](O)[C@H](N)[C@H]3O)[C@H](N)C[C@@H]2N)[C@H](N)[C@@H](O)[C@@H]1O [Kanamycin B],inactive: -0.663
3,CC(=O)O[C@]1(C(C)=O)CC[C@H]2[C@@H]3C=C(C)C4=CC(=O)CC[C@]4(C)[C@H]3CC[C@@]21C [Megestrol acetate],inactive: -1.02
4,C=C1[C@H](CO)[C@@H](O)C[C@@H]1n1cnc2c(=O)[nH]c(N)nc21 [Entecavir],inactive: 0.104
5,CC/C=C(\C(=O)N[C@@H]1C(=O)N2C(C(=O)OCOC(=O)C(C)(C)C)=C(COC(N)=O)CS[C@H]12)c1csc(N)n1 [Cefcapene pivoxil hydrochloride],inactive: -0.782
6,Cc1c(F)c(N2CCNC(C)C2)cc2c1c(=O)c(C(=O)O)cn2C1CC1 (stereo not drawn) [Grepafloxacin],inactive: -0.138
7,N=C(N=C(N)N)N1CCOCC1 [Moroxidine hydrochloride],inactive: 0.265
8,CC(=O)OCC(=O)[C@@]12OC3(CCCC3)O[C@@H]1C[C@H]1[C@@H]3CCC4=CC(=O)C=C[C@]4(C)[C@@]3(F)[C@@H](O)C[C@@]12C [Amcinonide],inactive: 0.776
9,CC(=O)Nc1ccc(OCC(O)CNC(C)C)cc1 (stereo not drawn) [Practolol],inactive: 0.429
10,CN1[C@@H]2CC[C@H]1C[C@@H](OC(c1ccccc1)c1ccccc1)C2 [Benztropine mesylate],inactive: -1.3
11,O=C(Nc1ccccc1)OCC(CN1CCCCC1)OC(=O)Nc1ccccc1 (stereo not drawn) [Diperodon hydrochloride],inactive: -0.994
12,CCCCC1C(=O)N(c2ccccc2)N(c2ccccc2)C1=O [Phenylbutazone],inactive: 0.62
13,CCCc1nc2c(C)cc(-c3nc4ccccc4n3C)cc2n1Cc1ccc(-c2ccccc2C(=O)O)cc1 [Telmisartan],inactive: -0.0531
14,CCCCOC(=O)c1ccc(O)cc1 [Butylparaben],inactive: -0.619
15,COCCCOc1cc(C[C@@H](C[C@H](N)[C@@H](O)C[C@H](C(=O)NCC(C)(C)C(N)=O)C(C)C)C(C)C)ccc1OC [Aliskiren hemifumarate],inactive: -0.517
16,CC(=O)/N=c1/sc(S(N)(=O)=O)nn1C [Methazolamide],inactive: 0.0353
17,N=C(N)N1CCc2ccccc2C1 [Debrisoquin sulfate],inactive: 0.854
18,C[C@H](O)[C@H](O)[C@H]1CNc2[nH]c(N)nc(=O)c2N1 [Sapropterin dihydrochloride],inactive: 0.574
19,"O=C(O)Cc1cc(I)c(Oc2ccc(O)c(I)c2)c(I)c1 [Tiratricol, 3,3',5-triiodothyroacetic acid]",inactive: 0.358
20,COCCCOc1ccnc(C[S+]([O-])c2nc3ccccc3[nH]2)c1C (stereo not drawn) [Rabeprazole Sodium salt],inactive: -0.658
21,CNCC[C@@H](Oc1ccccc1C)c1ccccc1 [Tomoxetine hydrochloride],inactive: -1.4

row,SMILES,light-induced TopBP1 condensate (z-score)
1,Cc1ccc(C(=O)C(C)CN2CCCCC2)cc1 (stereo not drawn) [Tolperisone hydrochloride],inactive: 0.383
2,O=C(CCCCC(=O)Nc1c(I)cc(I)c(C(=O)O)c1I)Nc1c(I)cc(I)c(C(=O)O)c1I [Iodipamide],inactive: -0.465
3,NS(=O)(=O)c1cc2c(cc1Cl)N=CNS2(=O)=O [Chlorothiazide],inactive: 0.000355
4,O=C(CCCl)NCc1ccccc1 [Beclamide],inactive: 0.736
5,CN[C@H](CC(C)C)C(=O)N[C@H]1C(=O)N[C@@H](CC(N)=O)C(=O)N[C@H]2C(=O)N[C@H]3C(=O)N[C@H](C(=O)N[C@H](C(=O)O)c4cc(O)cc(O)c4-c4cc3ccc4O)[C@H](O)c3ccc(c(Cl)c3)Oc3cc2cc(c3O[C@@H]2O[C@H](CO)[C@@H](O)[C@H](O)[C@H]2O[C@H]2C[C@](C)(N)[C@H](O)[C@H](C)O2)Oc2ccc(cc2Cl)[C@H]1O [Vancomycin hydrochloride],inactive: 0.547
6,CNS(=O)(=O)Cc1ccc2[nH]cc(CCN(C)C)c2c1 [Sumatriptan succinate],inactive: 0.656
7,NC(=O)c1ncn([C@@H]2O[C@H](CO)[C@@H](O)[C@H]2O)n1 [Ribavirin],inactive: -0.423
8,CCOC(=O)[C@H](CCc1ccccc1)N[C@@H](C)C(=O)N1[C@H](C(=O)O)C[C@@H]2CCC[C@@H]21 [Ramipril],inactive: 1.01
9,CCOc1ccc2c(c1)C(C)=CC(C)(C)N2 [Ethoxyquin],inactive: 0.549
10,CC(C)COCC(CN(Cc1ccccc1)c1ccccc1)N1CCCC1 (stereo not drawn) [Bepridil hydrochloride],inactive: 0.64
11,O=C(O)c1cc(=O)c2ccccc2o1 [Chromocarb],inactive: -0.4
12,NS(=O)(=O)c1cc(C(=O)O)c(NCc2ccco2)cc1Cl [Furosemide],inactive: 0.751
13,Cc1cc(C2CCCCC2)n(O)c(=O)c1 [Ciclopirox ethanolamine],inactive: -0.67
14,COc1cc(C(=O)NS(=O)(=O)c2ccccc2C)ccc1Cc1cn(C)c2ccc(NC(=O)OC3CCCC3)cc12 [Zafirlukast],inactive: -0.639
15,O=C1NCN(c2ccccc2)C12CCN(CCCC(c1ccc(F)cc1)c1ccc(F)cc1)CC2 [Fluspirilen],inactive: -0.796
16,CC(C)(C)C(=O)OCOC(=O)[C@@H]1N2C(=O)[C@@H](NC(=O)[C@H](N)c3ccccc3)[C@H]2SC1(C)C [Pivampicillin],inactive: 0.172
17,CN(C)C(=O)COC(=O)Cc1ccc(OC(=O)c2ccc(NC(=N)N)cc2)cc1 [Camostat mesylate],inactive: -0.369
18,N=C(N)NC(=O)c1nc(Cl)c(N)nc1N [Amiloride hydrochloride dihydrate],inactive: 0.285
19,CCCCOC(=O)c1ccc(N)cc1 [Butamben],inactive: 1.14
20,N[C@@H]1CCCCN(c2c(F)cc3c(=O)c(C(=O)O)cn(C4CC4)c3c2Cl)C1 [Besifloxacin hydrochloride],inactive: -0.0694
21,CC[C@H]1OC(=O)[C@H](C)[C@@H](O[C@H]2C[C@@](C)(OC)[C@@H](O)[C@H](C)O2)[C@H](C)[C@@H](O[C@@H]2O[C@H](C)C[C@H](N(C)C)[C@H]2O)[C@](C)(OC)C[C@@H](C)C(=O)[C@H](C)[C@@H](O)[C@]1(C)O [Clarithromycin],inactive: 0.467

row,SMILES,light-induced TopBP1 condensate (z-score)
1,CCOc1ccccc1OCC1CNCCO1 (stereo not drawn) [Viloxazine hydrochloride],inactive: 0.74
2,NC(=O)Cc1cccc(C(=O)c2ccccc2)c1N [Nepafenac],inactive: 0.184
3,CC(C)COC(=O)OCN1C(=O)CN(CCN2CC(=O)N(COC(=O)OCC(C)C)C(=O)C2)CC1=O [Sobuzoxane],inactive: 0.7
4,CCCCC1=NC2(CCCC2)C(=O)N1Cc1ccc(-c2ccccc2-c2nnn[nH]2)cc1 [Irbesartan],inactive: -0.971
5,COCC1=C(C(=O)OC(C)OC(=O)OC(C)C)N2C(=O)[C@@H](NC(=O)/C(=N\OC)c3csc(N)n3)[C@H]2SC1 (stereo partly drawn) [Cefpodoxime proxetil],inactive: -1.06
6,CCN(CC)CCOC(=O)C(c1ccccc1)C1CCCCC1 (stereo not drawn) [Drofenine hydrochloride],inactive: 0.242
7,O=C(CCCN1CCC(O)(c2ccc(Br)cc2)CC1)c1ccc(F)cc1 [Bromperidol],inactive: -0.747
8,CC(C(=O)O)c1ccc(N2CC=CC2)c(Cl)c1 (stereo not drawn) [Pirprofen],inactive: 0.653
9,CO[C@@]1(NC(=O)Cc2cccs2)C(=O)N2C(C(=O)O)=C(COC(N)=O)CS[C@@H]21 [Cefoxitin sodium salt],inactive: 0.497
10,CC(=O)c1ccc2c(c1)N(CCCN1CCC(CCO)CC1)c1ccccc1S2 [Piperacetazine],inactive: -0.657
11,COC(=O)C1=C(C)NC(C)=C(C(=O)O[C@H]2CCN(Cc3ccccc3)C2)[C@H]1c1cccc([N+](=O)[O-])c1 [Barnidipine Hydrochloride],inactive: -1.06
12,C=CCOc1ccc(CC(=O)O)cc1Cl [Alclofenac],inactive: 0.0679
13,CCCCC(CC)CN1CN(CC(CC)CCCC)CC(C)(N)C1 (stereo not drawn) [Hexetidine],inactive: -0.633
14,COc1cc2c(cc1OC)C(=O)C(CC1CCN(Cc3ccccc3)CC1)C2 (stereo not drawn) [Donepezil hydrochloride],inactive: -1.01
15,CN(C)c1ccc2nc3ccc(=[N+](C)C)cc-3sc2c1 [Methylene blue],active: -8.05
16,Cc1cccc(C)c1NC(=O)C1CCCCN1C (stereo not drawn) [Mepivacaine hydrochloride],inactive: 0.0803
17,COc1ccc(C2C(=O)c3ccccc3C2=O)cc1 [Anisindione],inactive: 0.789
18,CN1C(C(=O)Nc2ccccn2)=C(O)c2sccc2S1(=O)=O [Tenoxicam],inactive: 0.103
19,Cc1ncc([N+](=O)[O-])n1CC(O)CCl (stereo not drawn) [Ornidazole],inactive: 0.357
20,C[C@]12CC[C@H]3C(=CCc4cc(O)ccc43)[C@@H]1CCC2=O [Equilin],inactive: 0.0892
21,C=C[C@H]1CN2CC[C@H]1C[C@@H]2[C@@H](O)c1ccnc2ccc(OC)cc12 [Quinidine hydrochloride monohydrate],inactive: -1.31
